Source: paper PMC4336329 (PLoS ONE, 2015)
In all, about 310,000 compounds went through this assay and about 2,200 (0.71%) showed an effect of 50% or more. Effects have a minus sign here. This is one part of the list.

biological target: human ether-à-go-go-related gene (hERG) potassium channel (human, UniProt Q12809); assay: primary screen, population patch clamp on CHO cells stably expressing hERG
Sequence (Q12809 whole entry, looked up): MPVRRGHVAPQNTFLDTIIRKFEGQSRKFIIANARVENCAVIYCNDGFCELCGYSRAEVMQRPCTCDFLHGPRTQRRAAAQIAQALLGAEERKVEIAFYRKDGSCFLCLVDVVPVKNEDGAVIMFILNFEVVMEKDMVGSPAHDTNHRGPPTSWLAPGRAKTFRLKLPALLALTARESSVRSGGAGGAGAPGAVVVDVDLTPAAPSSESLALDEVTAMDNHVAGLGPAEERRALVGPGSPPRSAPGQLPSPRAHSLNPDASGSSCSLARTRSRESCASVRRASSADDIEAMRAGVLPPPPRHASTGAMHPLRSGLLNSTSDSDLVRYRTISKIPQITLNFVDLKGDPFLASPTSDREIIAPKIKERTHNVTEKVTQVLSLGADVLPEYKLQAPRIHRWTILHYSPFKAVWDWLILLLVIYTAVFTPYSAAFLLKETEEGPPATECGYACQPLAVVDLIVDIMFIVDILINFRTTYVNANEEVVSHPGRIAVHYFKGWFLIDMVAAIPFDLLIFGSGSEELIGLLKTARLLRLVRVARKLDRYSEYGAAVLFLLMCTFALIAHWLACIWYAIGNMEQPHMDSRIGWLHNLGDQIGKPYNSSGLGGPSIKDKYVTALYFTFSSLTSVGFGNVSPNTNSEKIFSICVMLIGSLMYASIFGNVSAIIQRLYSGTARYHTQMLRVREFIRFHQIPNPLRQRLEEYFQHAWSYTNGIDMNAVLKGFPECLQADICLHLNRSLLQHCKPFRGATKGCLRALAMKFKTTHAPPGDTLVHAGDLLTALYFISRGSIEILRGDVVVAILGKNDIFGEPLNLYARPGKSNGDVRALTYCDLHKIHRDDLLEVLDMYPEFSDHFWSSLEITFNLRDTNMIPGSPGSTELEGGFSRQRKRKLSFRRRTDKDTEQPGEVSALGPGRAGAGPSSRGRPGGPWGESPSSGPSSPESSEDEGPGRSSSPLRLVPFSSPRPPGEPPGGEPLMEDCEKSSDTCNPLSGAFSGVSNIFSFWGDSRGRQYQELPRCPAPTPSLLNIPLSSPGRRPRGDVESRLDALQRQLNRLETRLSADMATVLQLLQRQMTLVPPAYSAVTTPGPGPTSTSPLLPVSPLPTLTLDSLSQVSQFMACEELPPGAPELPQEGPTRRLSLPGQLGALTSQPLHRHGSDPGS

| SMILES | hERG current change (%, negative = inhibition) at 1uM [%] |
| --- | --- |
| CC1CC(C)CN(CCCNC(=O)C2CCCN(S(=O)(=O)N3CC(C)CC(C)C3)C2)C1 (stereo not shown) | -17.1 |
| C/C(N)=C(/C#N)C(=O)CSc1nc2ccccc2c(=O)n1-c1ccc(C)c(Cl)c1 | 9.81 |
| CC(C)NC(=O)Cn1c(SCC(=O)N2c3ccccc3CC2C)nc2ccccc21 (stereo not shown) | 3.76 |
| CC1CCN(CCCCOc2ccccc2Br)CC1 | -15.5 |
| O=C(COc1ccc(/C=N/NC(=O)c2cc3ccccc3o2)cc1Br)Nc1ccccc1 | 14.2 |
| COc1ccc(-c2csc(N(C)C(=O)c3ccco3)n2)cc1 | 11.8 |
| COc1cccc(-n2nnc3c(=O)n(CC(=O)N4CCC(Cc5ccccc5)CC4)cnc32)c1 | 10.5 |
| NC(=O)C1CCN(c2nnnn2-c2ccccc2)CC1 | 9.96 |
| COc1ccc(NC(=O)Nc2nnc(C(C)C)s2)cc1 | -1.58 |
| Cc1nc(N(C)C)ncc1C(=O)O | 9.59 |
| COc1ccc(-c2cc(C(=O)Nc3c(C)n(C)n(-c4ccccc4)c3=O)c3ccccc3n2)cc1OC | 20.5 |
| COc1ccc(C2(c3ccc(OC)cc3)NC(=O)N(CC(=O)Nc3ccc(OC)c(OC)c3)C2=O)cc1 | 16 |
| O=c1c2ccccc2nc(/C=C/c2ccccc2F)n1-c1ccccc1O | 12.6 |
| CCOC(=O)Cc1csc(NC(=O)c2ccc(C)cc2)n1 | 0.7 |
| Cc1c(C(C)CCCO)oc(=O)c2c1Oc1c(C)c(C(C)C[C@@H](C)O)oc(=O)c1C2 (stereo partly shown) | 11.6 |
| CC1(C)CC(=O)C=C(c2ccc(OC(F)(F)F)cc2)C1 | 1.78 |
| COc1ccc(-n2c(Cc3cccn3C)nnc2SCC(=O)N2CCCC2)cc1 | 1.38 |
| CC(C)CNc1nc(S(=O)(=O)c2ccccc2)c(Cl)s1 | 3.46 |
| Cc1ccc(C(=O)NC2CCCCCC2)o1 | 1.86 |
| COc1cccc(CNC(=O)c2ccc(NS(=O)(=O)c3ccc4[nH]c(=O)[nH]c4c3)cc2)c1 | 15.3 |
| CCOc1cc(/C=C2/NC(=O)N(CC(=O)Nc3cccc(C)c3)C2=O)ccc1O | 8 |
| CCCn1nc2cc(C(=O)NCc3ccccc3OC)ccc2c1OCC | 11.9 |

| SMILES | hERG current change (%, negative = inhibition) at 1uM [%] |
| --- | --- |
| COC(=O)c1ccc(NC(=O)CN2CCN(c3ccccc3C)CC2)cc1 | 4.67 |
| CC(=O)Nc1ccc(S(=O)(=O)NC2CC2)cc1 | 11.1 |
| CN1CCCN(C(=O)COc2ccc(F)cc2Cl)CC1 | 4.96 |
| CCOC(=O)c1c(NC(=S)Nc2ccc(F)cc2)sc2c1CCC2 | -21.8 |
| Cc1ccc(O)c(NC(=S)NC(=O)c2ccc(-c3ccc(Cl)cc3)o2)c1 | 9.16 |
| CCN(CC)C(=O)COc1ccc(CC(=O)O)cc1OC | 17.5 |
| O=C(NC1CCCCCC1)C1c2ccccc2C(=O)N1Cc1cccs1 (stereo not shown) | -7.02 |
| Cc1ccc2c(c1)N(C(=O)CCC(=O)N1CCC3(CC1)OCCO3)CCO2 | 6.49 |
| Cc1ccccc1C(C)NC(=O)COC(=O)Cn1cc(C(F)(F)F)ccc1=O (stereo not shown) | 13.5 |
| COc1cccc(CNc2ncnc3ccc(-c4c(C)noc4C)cc23)c1 | 14.9 |
| CCNC(=O)CC1C(=O)N(c2ccc(F)cc2)C(=O)N1CCC(C)C (stereo not shown) | 3.28 |
| Cc1ccc(C)c(OCCC(=O)NNC(=O)c2ccccc2F)c1 | 3.32 |
| O=C(CN1C(=O)NC2(CCCC2)C1=O)Nc1nc2ccc(F)cc2s1 | -8.4 |
| COc1cc(NS(=O)(=O)c2ccc3c(c2)C(C)(C)C(=O)N3C)cc(OC)c1 | 4.96 |
| CCNC(=O)O/N=C1\CCCCC1c1ccc([N+](=O)[O-])cc1[N+](=O)[O-] (stereo not shown) | 6.38 |
| COc1cccc(C(=O)/C=C/Nc2ccc(S(=O)(=O)Nc3ccc(C(C)=O)cc3)cc2)c1 | 12 |
| Cc1ccc(NC(=S)N2CCC(N(C)CC3CCCO3)CC2)c(C)c1 (stereo not shown) | -7.06 |
| Cc1sc(NC(=O)c2ccccc2F)c(CN2CCCCC2)c1C | 9.65 |
| O=C(NCCN1CCOCC1)c1ccc(F)cc1 | 3.36 |
| COc1ccc(NC(=S)NNC(=O)CNc2ccc(Cl)cc2)cc1 | -1.3 |
| CC(C)N1CCc2c(sc(NC(=O)Cc3ccccc3)c2C(N)=O)C1.Cl | 6.18 |
